Assay results from publication PMC13280575.
These are yes or no findings as the source states them, for the method shown. For some of these results: Binding seen in cells or lysates may run through a third protein. Some results given as binding are weak or reduced against the parent protein; the word gives no strength. For some of these results: Sequences can lack the tags named with a protein.

By UniProt entry, the sequences of proteins in these tests, tags left out. Residues count along the entry.
BRCA1 residues 1–400 (N-terminal domain) prey in pTRG (P38398, residues 1-400): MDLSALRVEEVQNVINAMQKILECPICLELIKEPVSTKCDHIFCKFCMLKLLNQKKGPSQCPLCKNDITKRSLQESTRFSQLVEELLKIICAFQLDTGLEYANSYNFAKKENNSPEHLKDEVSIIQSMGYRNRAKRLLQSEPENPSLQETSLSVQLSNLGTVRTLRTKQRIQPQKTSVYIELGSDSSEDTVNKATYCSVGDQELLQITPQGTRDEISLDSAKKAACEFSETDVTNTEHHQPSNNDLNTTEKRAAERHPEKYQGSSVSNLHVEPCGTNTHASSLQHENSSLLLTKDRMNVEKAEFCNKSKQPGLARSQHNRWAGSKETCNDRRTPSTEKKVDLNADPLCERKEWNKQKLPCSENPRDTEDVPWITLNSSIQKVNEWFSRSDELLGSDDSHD
FLAG-BRCA1 (1–178), in vitro translated (P38398, residues 1-178): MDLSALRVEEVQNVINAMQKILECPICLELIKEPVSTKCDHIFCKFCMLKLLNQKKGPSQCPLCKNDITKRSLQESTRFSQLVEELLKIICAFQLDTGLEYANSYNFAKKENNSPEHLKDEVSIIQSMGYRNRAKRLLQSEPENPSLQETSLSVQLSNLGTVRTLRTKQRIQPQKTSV

Key:
[1] = biological target: T1, GST-PER2(356–574) (human) (UniProt O15055); assay: pull-down; 20 μg GST fusion protein on glutathione-Sepharose beads with 3 μL in vitro translated [35S]-labelled protein; 20 mM Tris-HCl pH 7.4, 100 mM NaCl, 5 mM EDTA, 0.1 % Triton X-100; 1 h at 4 °C; washes with 100 mM and 1 M NaCl; autoradiography; only the target purified
T1 sequence: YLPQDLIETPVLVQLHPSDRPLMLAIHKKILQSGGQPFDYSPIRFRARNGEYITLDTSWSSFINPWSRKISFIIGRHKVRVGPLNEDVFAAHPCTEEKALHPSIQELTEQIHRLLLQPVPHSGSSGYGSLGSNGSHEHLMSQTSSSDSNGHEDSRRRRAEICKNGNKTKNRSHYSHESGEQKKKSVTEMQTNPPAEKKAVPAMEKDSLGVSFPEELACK

[2] = biological target: T2, GST-PER2(683–872) (human) (UniProt O15055); assay: as above
T2 sequence: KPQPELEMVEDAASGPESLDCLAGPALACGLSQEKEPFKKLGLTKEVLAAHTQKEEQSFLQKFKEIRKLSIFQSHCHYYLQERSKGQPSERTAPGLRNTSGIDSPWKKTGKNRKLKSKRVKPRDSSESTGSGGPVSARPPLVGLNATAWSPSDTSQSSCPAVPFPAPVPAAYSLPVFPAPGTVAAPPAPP

[3] = biological target: T3, GST-PER2(1121–1255) (human) (UniProt O15055); assay: condition: 20 μg GST fusion protein, 3 μL in vitro translated protein; pull-down; 20 μg GST fusion protein on glutathione-Sepharose beads with 3 μL in vitro translated [35S]-labelled protein; 20 mM Tris-HCl pH 7.4, 100 mM NaCl, 5 mM EDTA, 0.1 % Triton X-100; 1 h at 4 °C; washes with 100 mM and 1 M NaCl; autoradiography; only the target purified
T3 sequence: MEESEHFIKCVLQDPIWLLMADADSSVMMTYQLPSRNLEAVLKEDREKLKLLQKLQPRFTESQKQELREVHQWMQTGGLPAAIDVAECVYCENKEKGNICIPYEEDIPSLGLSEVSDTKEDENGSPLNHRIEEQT

[4] = biological target: T4, GST-PER2(173–355) (human) (UniProt O15055); assay: as above
T4 sequence: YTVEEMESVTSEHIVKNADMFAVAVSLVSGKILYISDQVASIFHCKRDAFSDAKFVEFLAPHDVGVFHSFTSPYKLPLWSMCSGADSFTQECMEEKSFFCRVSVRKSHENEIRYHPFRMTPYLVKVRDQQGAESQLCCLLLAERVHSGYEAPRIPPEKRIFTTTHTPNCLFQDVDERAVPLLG

[5] = biological target: T5, GST-PER2(1–172) (human) (UniProt O15055); assay: as above
T5 sequence: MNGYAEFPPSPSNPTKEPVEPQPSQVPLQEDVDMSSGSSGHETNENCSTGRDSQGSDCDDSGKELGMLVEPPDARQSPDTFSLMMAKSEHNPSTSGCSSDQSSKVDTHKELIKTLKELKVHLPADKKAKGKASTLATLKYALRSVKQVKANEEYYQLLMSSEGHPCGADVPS

[6] = biological target: T6, GST-PER2(575–682) (human) (UniProt O15055); assay: as above
T6 sequence: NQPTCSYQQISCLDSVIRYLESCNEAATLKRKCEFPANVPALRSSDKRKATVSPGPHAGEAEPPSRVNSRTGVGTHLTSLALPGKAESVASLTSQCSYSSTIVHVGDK

[7] = biological target: T7, GST-PER2(873–1120) (human) (UniProt O15055); assay: as above
T7 sequence: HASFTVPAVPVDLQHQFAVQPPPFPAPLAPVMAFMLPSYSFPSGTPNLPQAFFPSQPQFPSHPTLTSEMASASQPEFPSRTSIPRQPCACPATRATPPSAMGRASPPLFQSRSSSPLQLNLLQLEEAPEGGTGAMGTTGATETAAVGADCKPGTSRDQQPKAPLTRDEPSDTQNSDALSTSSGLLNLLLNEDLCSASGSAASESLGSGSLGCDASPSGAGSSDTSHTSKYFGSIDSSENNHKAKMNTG

[8] = biological target: T8, PER2(356–574) bait in pBT (human) (UniProt O15055); assay: two-hybrid; BacterioMatch II bacterial two-hybrid, direct co-transformation of defined pBT-PER2 baits and pTRG-BRCA1 preys; growth on Tet/Cam, Tet/Cam/3-AT and Tet/Cam/3-AT/Str
T8 sequence: T1 sequence

[9] = biological target: T9, PER2(683–872) bait in pBT (human) (UniProt O15055); assay: as above
T9 sequence: T2 sequence

[10] = biological target: T10, PER2(822–1255) bait in pBT (human) (UniProt O15055); assay: as above
T10 sequence: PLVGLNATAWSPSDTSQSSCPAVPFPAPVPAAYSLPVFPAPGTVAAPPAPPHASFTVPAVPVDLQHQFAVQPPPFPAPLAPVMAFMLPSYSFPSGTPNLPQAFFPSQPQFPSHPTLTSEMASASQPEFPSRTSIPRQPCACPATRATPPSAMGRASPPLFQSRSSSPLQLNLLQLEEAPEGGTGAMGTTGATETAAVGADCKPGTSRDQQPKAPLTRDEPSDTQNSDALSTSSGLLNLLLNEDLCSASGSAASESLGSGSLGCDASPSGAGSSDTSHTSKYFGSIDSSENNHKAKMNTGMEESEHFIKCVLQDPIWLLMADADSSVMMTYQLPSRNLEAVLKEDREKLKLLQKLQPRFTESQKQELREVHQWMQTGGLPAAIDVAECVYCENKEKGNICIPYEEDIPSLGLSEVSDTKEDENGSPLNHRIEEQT

[11] = biological target: T11, pBT-PER2 (residues 1-1255), full-length human PER2 bait (human) (UniProt O15055); assay: as above
T11 sequence: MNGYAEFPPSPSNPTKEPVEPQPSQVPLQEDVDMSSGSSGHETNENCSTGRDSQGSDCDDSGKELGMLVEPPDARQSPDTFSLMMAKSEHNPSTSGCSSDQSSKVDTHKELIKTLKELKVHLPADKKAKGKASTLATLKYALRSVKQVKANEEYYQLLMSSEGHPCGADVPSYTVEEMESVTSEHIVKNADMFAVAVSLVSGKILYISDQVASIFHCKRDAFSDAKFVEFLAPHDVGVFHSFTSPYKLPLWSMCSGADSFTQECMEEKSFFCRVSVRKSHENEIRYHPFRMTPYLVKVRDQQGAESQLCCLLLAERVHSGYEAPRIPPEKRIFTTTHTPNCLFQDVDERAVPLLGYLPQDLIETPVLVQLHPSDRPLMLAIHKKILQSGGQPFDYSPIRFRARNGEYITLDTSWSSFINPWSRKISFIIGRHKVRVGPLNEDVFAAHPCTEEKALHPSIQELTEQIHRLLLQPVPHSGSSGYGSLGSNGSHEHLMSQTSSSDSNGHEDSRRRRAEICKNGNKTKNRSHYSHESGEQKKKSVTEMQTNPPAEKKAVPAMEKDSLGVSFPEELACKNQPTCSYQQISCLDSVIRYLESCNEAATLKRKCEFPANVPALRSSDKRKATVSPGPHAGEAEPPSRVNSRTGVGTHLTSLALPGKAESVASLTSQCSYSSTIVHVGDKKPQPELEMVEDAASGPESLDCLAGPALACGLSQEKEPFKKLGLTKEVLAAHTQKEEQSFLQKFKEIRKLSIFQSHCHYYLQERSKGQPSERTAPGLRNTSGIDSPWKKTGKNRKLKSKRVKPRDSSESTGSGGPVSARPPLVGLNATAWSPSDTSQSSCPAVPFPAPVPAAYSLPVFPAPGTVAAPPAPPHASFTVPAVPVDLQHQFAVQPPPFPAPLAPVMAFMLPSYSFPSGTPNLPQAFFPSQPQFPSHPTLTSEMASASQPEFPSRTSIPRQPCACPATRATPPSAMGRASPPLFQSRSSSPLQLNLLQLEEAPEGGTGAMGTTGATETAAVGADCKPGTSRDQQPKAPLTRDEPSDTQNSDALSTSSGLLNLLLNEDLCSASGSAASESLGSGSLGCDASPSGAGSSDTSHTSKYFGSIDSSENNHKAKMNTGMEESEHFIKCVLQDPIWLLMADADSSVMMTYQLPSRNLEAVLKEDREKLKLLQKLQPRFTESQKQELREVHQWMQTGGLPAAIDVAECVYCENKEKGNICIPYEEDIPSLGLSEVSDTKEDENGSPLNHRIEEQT

[12] = biological target: T11, pBT-PER2 (residues 1-1255), full-length human PER2 bait (human); assay: two-hybrid; BacterioMatch II bacterial two-hybrid screen: PER2 bait in pBT against a human liver cDNA library in pTRG; selection on 5 mM 3-AT, then 3-AT plus streptomycin; 37 °C

binding [1]	binding [2]	binding [3]	binding [4]	binding [5]	binding [6]	binding [7]	binding [8]	binding [9]	binding [10]	binding [11]	binding [12]	Substance
binds	binds	no binding	no binding	no binding	no binding	no binding	–	–	–	–	–	(myc)6-BRCA1 (1–400), in vitro translated (from UniProt P38398 1-400) (domain or fragment)
–	–	–	–	–	–	–	binds	binds	binds	binds	binds	BRCA1 residues 1–400 (N-terminal domain) prey in pTRG (from UniProt P38398 1-400) (domain or fragment)
binds	binds	no binding	no binding	no binding	no binding	no binding	–	–	–	–	–	FLAG-BRCA1 (1–178), in vitro translated (from UniProt P38398 1-178) (domain or fragment)
